Test results published in PubChem BioAssay AID179 (DTP/NCI, 2004).
Some entries of the source have several records that differ or are many. This list holds those alone. The source may hold further records. The records of an entry are repeats in other runs, samples, wells, individuals or studies. Records carry a tag for their origin. A, B and so on number the origins entry by entry.

Tested on: CEM cells HIV-1 protection, formazan growth assay
Assay: NCI AIDS Antiviral Assay
Conditions: measured here: growth of uninfected CEM cells
Summary of the method: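 Human CEM cells, uninfected and HIV-1-infected, exposed to five drug concentrations; growth measured by soluble formazan assay and scored as percent protection from infection, with protecting compounds retested.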

`Cc1cc(=O)c2c(O)c3c(O)cc(O)c4c5c(O)cc(O)c6c(O)c7c(=O)cc(C)c8c1c2c(c34)c(c65)c78` was tested, and the IC50 was > 100 µM [sample A] and 2.95 µM [sample B].

In the case of `COc1cccc2c1C(=O)c1c(O)c3c(c(O)c1C2=O)C[C@@](O)(C(=O)CO)C[C@@H]3OC1CC(N)C(O)C(C)O1` (some centres not stated), the IC50 is reported as 1.82 nM [sample A] and 63.1 nM [sample B].
